# In PubChem BioAssay AID894 (National Center for Advancing Translational Sciences (NCATS), 2007):
# Hit rate of the full screen: of about 150,000 compounds, about 6,500 (4.3%) were called active. The inconclusive results got no clear call from the source; some entries with a clear call stand among them for comparison. Calls come from the whole dose curve; as a rule, active = well fitted inhibition curve with a large enough effect (not every such curve was filed as active); inconclusive = small, poorly fitted or top-dose-only effect, or another doubt; inactive = no such curve, though single readings can be large or run the other way. Potencies of inconclusive entries are left out as doubtful fits.
# Target: 15-hydroxyprostaglandin dehydrogenase [NAD(+)] (Homo sapiens) (UniProt P15428)
# Assay: qHTS Assay for Inhibitors of HPGD (15-Hydroxyprostaglandin Dehydrogenase)
# Conditions: purified HPGD, NADH fluorescence kinetic, PGE2 substrate; activity change, negative = inhibition: active compounds read low
# How it was run: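 20 nM HPGD preincubated 15 min at room temperature with compound in 50 mM Tris-HCl pH 8, 0.01% Tween 20. Started with 1 mM NAD+ and 30 uM prostaglandin E2; NADH fluorescence (360/450 nm) read 5 times over 30-s intervals, last minus first.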
# % is set by controls: 0 for no effect and ±100 for the full control effect; potency is the fitted concentration of half-maximal effect; tags give direction and shape of the fitted curve.
# Sequence of UniProt P15428 (P15428 whole entry, looked up): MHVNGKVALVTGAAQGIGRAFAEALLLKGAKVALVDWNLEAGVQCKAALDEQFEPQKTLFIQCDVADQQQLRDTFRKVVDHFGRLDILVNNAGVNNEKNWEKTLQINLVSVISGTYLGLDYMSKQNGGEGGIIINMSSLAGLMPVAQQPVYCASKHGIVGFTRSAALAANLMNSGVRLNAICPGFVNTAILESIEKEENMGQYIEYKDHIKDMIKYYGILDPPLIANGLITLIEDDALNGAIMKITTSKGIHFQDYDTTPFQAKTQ
Structure (SMILES),Potency,"activity change, negative = inhibition"
Cc1ccc(C(=O)CSc2n[nH]c(-c3ccco3)n2)cc1C,active: 5.01 µM,
Cc1nc(Nc2ccccc2)c2nc(-c3ccccc3)n(CCN3CCOCC3)c2n1,"inconclusive [inhibitor, partial curve]",
N#Cc1c(Sc2ncc(C(F)(F)F)cc2Cl)nsc1C/C=N\OCc1c(F)cccc1Cl,,inactive: -22.4%
COc1cccc(Nc2n[nH]c(=S)s2)c1,active: 10 µM,
O=C(O)CCc1nn2c3ccccc3n(CC(=O)c3ccccc3)c2nc1=O,"inconclusive [inhibitor, partial curve]",
Cc1ccccc1NC(=O)CC1SC(=O)N(c2ccccc2)C1=O (centres undefined),"inconclusive [inhibitor, single point]",
Cc1cccc(OCc2nnc(SCC(=O)Nc3cc(C)on3)n2C)c1,,inactive: -5.79%
CCCCn1nc2cc(C(=O)NCCCCc3ccccc3)ccc2c1OCC,"inconclusive [inhibitor, single point]",
O=C1/C(=C/c2ccccc2)CCC1C1CCCC1 (centres undefined),"inconclusive [inhibitor, single point]",
Cn1c(Cn2c(=O)sc3ccccc32)nnc1SCC(=O)N1CCc2ccccc21,,inactive: -2.44%
Cc1ccc(S(=O)(=O)c2c(C)cc(-c3ccccc3)[nH]c2=O)cc1,"inconclusive [inhibitor, partial curve, poor fit]",
CC(C)(C[C@@]1(C)NC(=O)NC1=O)OCc1ccccc1,,inactive: -3.51%
Cc1ccc(S(=O)(=O)NNc2ccccc2)cc1,active: 5.01 µM,
COC(=O)c1c(C)[nH]c(C(=O)CSc2ncnc3sc(-c4ccccc4)cc23)c1C,"inconclusive [inhibitor, partial curve]",
O=C(NCc1ccco1)c1c[nH]c2ccc(S(=O)(=O)N3CCOCC3)cc2c1=O,"inconclusive [inhibitor, single point]",
Cc1ccc(-c2cc(C)nc3nc(N)nn23)cc1,"inconclusive [inhibitor, partial curve]",
O=C(N/N=C/c1cccc(OCc2ccccc2)c1)c1ccc(Br)cc1,"inconclusive [inhibitor, partial curve]",
Cc1c(Cl)c(=O)oc2cc(OCC(=O)NCc3cccs3)ccc12,"inconclusive [inhibitor, partial curve]",
c1ccc2c(c1)ncn2-c1ncnc2sc3c(c12)CCCC3,"inconclusive [inhibitor, partial curve]",
COc1cc(C(=S)N2CCC(C(N)=O)CC2)ccc1O,active: 17.8 µM,
Cc1ccc(Nc2nc(N)nc(CSc3nnc(-c4ccncc4)o3)n2)cc1,,inactive: 4.68%
C/C(=N\Nc1nc(-c2cc(C)ccc2C)cs1)c1cc2ccccc2oc1=O,"inconclusive [inhibitor, single point]",

Structure (SMILES),Potency,"activity change, negative = inhibition"
CC(C)CC(NC(=O)C1CCC(C)CC1)C(=O)Nc1ccc2c(c1)OCCO2 (centres undefined),,inactive: -9.05%
C=C(C)CN(CC)C(=O)CSc1nc2ncc(Cl)cc2[nH]1,active: 14.1 µM,
CC(OC(=O)CCc1nc2ccccc2c(=O)[nH]1)C(=O)c1ccc(C(C)(C)C)cc1 (centres undefined),"inconclusive [inhibitor, partial curve]",
Cc1nn(-c2ccccc2)c(Cl)c1C(=O)NCC(C)C,active: 10 µM,
CCc1ccc(C(=O)/C=C/c2cnn(C)c2C)s1,"inconclusive [inhibitor, partial curve]",
CC[C@H]1OC(=O)[C@H](C)[C@@H](O[C@H]2C[C@@](C)(OC)[C@@H](O)[C@H](C)O2)[C@H](C)[C@@H](O[C@@H]2O[C@H](C)C[C@H](N(C)C)[C@H]2O)[C@](C)(O)C[C@@H](C)CN(C)[C@H](C)[C@@H](O)[C@]1(C)O,,inactive: -7.15%
O=C(NNS(=O)(=O)c1ccccc1)c1cc2cc3ccccc3nc2s1,"inconclusive [inhibitor, partial curve]",
COc1ccc(-c2cc(C(F)(F)F)nc(NC3CCCC3)n2)cc1OC,"inconclusive [inhibitor, single point]",
CCOC(=O)C1=C(C)NC(=S)NC1c1cccc(O)c1 (centres undefined),"inconclusive [inhibitor, partial curve, poor fit]",
O=C(Nc1ccc(S(=O)(=O)N2CCC(C(=O)NC3CCCCC3)CC2)cc1)c1ccco1,"inconclusive [inhibitor, single point]",
S=C(NCCc1ccccc1)Nc1ccccc1Cl,,inactive: -25.8%
O=C1C2=C(Nc3cc([N+](=O)[O-])ccc3N2)O[C@@H]1c1c[nH]c2ccc(COc3ccccc3)cc12,,inactive: -26.5%
COc1ccc(C(=O)c2c[nH]c(C(=O)NCC3CCCO3)c2)cc1 (centres undefined),active: 2 µM,
CCOc1ccccc1NC(=O)C(OC(=O)c1ccc(N(C)C)cc1)c1ccccc1 (centres undefined),"inconclusive [inhibitor, partial curve]",
Cn1c(=O)c2c(nc(CN3CCC(C(N)=O)CC3)n2Cc2ccccc2Cl)n(C)c1=O,,inactive: -0.282%
CC(=O)NC1(c2ccccc2)CCN(c2nc(C)cc(C)n2)CC1,"inconclusive [inhibitor, single point]",
CCOCCCNC(=O)C(NC(=O)c1ccc(NC(C)=O)cc1)c1ccc(OC)cc1 (centres undefined),,inactive: -0.543%
CC(C(=O)NCc1ccc2c(c1)OCO2)N1c2cccc3cccc(c23)S1(=O)=O (centres undefined),"inconclusive [inhibitor, single point]",
CN(C)c1ccc(C(=O)OCc2ccccc2)cc1,"inconclusive [inhibitor, partial curve]",
CCOC(=O)C(C)Sc1nc2c(c(=O)[nH]c(=O)n2C)n1C/C=C(/C)Cl (centres undefined),active: 22.4 µM,
CCOC(=O)c1[nH]c2cc3c(cc2c1NC(=O)CN1CCC(C)CC1)OCO3,"inconclusive [inhibitor, partial curve]",
CSC1=NSC2=NC(=O)/C(=C/c3coc4ccc(O)cc4c3=O)C(=N)N12,active: 22.4 µM,
